In all, about 2,900 compounds were measured (“NF-kB SEAP reporter activity, fold change vs agonist alone”: median about 0.99, highest 2% from about 2.6 on). The list shows a part of the results.
Columns and labels:
RAW-Dual [1] = assay: NF-kB SEAP reporter activity, fold change vs agonist alone; higher = enhanced NF-kB activity; conditions: cytotoxicity flag (confluency mask): not cytotoxic
In short: (§1)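 RAW-Dual macrophages were seeded in DMEM at 50,000 cells/well in 384-well plates, given 50 nL of library stock by pin tool, and given a PRR agonist 1 h later. Plates were held at 37 °C, 5% CO2 for 20 hours, after which supernatant was read for IRF by QuantiLuc luminescence and for NF-κB by QuantiBlue absorbance at 620 nm. Reporter activity is expressed as fold change over wells that received agonist alone. A well was called cytotoxic when IncuCyte confluency fell below 70% of agonist controls in both mask sets.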

RAW-Dual [2] = assay: NF-kB SEAP reporter activity, fold change vs agonist alone; cytotoxicity flag (confluency mask): not cytotoxic; higher = enhanced NF-kB activity
In short: as §1

RAW-Dual [3] = assay: NF-kB SEAP reporter activity, fold change vs agonist alone; cytotoxicity flag (confluency mask): cytotoxic (confluency <70% of control); higher = enhanced NF-kB activity
In short: as §1

[4] = library stock concentration (final ~1000-fold dilution): 10 mM, agonist: Imiquimod (TLR7) […]
[5] = library stock concentration (final ~1000-fold dilution): 10 mM, agonist: MPLA (TLR4) […]
[6] = agonist: ODN 1826 (TLR9) 0.5 ug/mL
[7] = agonist: Pam2CSK4 (TLR2/6) 0.1 ug/mL
[8] = agonist: Pam3CSK4 (TLR2/1) 0.1 ug/mL

FC(F)F.N=C(N)NCCCC1NC(=O)C(CCCCN)NC(=O)C(Cc2ccc(O)cc2)NC(=O)C(CC(=O)O)NC(=O)CNC1=O.O=C(O)C(F)(F)F.O=CO (stereo unspecified)
NF-kB SEAP reporter activity (RAW-Dual [1]; [4]): 0.972 | NF-kB SEAP reporter activity (RAW-Dual [1]; [5]): 1.04

FC(F)F.N=C(N)NCCCC1NC(=O)C(CCCCN)NC(=O)C(Cc2ccc(O)cc2)NC(=O)C(CC(=O)O)NC(=O)CNC1=O.O=C(O)C(F)(F)F.O=CO (stereo unspecified) (library stock concentration (final ~1000-fold dilution): 10 mM)
NF-kB SEAP reporter activity (RAW-Dual [2]; agonist: LPS (TLR4) 0.1 ug/mL): 1.23 | NF-kB SEAP reporter activity (RAW-Dual [2]; [6]): 0.997 | NF-kB SEAP reporter activity (RAW-Dual [2]; [7]): 1.14 | NF-kB SEAP reporter activity (RAW-Dual [2]; [8]): 0.899

N=C(N)NCCCC(N)C(=O)NCC(=O)NC(CC(=O)O)C(=O)O (stereo unspecified) (library stock concentration (final ~1000-fold dilution): 10 mM water)
NF-kB SEAP reporter activity (RAW-Dual [2]; agonist: LPS (TLR4) 0.1 ug/mL): 1.41 | NF-kB SEAP reporter activity (RAW-Dual [2]; [6]): 1.14 | NF-kB SEAP reporter activity (RAW-Dual [2]; [7]): 1.2 | NF-kB SEAP reporter activity (RAW-Dual [2]; [8]): 0.993

N=C(N)NCCCC(N)C(=O)NCC(=O)NC(CC(=O)O)C(=O)O (stereo unspecified)
NF-kB SEAP reporter activity (RAW-Dual [1]; library stock concentration (final ~1000-fold dilution): 10 mM water, agonist: Imiquimod (TLR7) […]): 0.924 | NF-kB SEAP reporter activity (RAW-Dual [1]; library stock concentration (final ~1000-fold dilution): 10 mM water, agonist: MPLA (TLR4) […]): 1.06

Cl.Fc1ccc(C2CCNCC2COc2ccc3c(c2)OCO3)cc1 (stereo unspecified)
NF-kB SEAP reporter activity (RAW-Dual [1]; [4]): 1.5 | NF-kB SEAP reporter activity (RAW-Dual [1]; [5]): 1.07

Cl.Fc1ccc(C2CCNCC2COc2ccc3c(c2)OCO3)cc1 (stereo unspecified) (library stock concentration (final ~1000-fold dilution): 10 mM)
NF-kB SEAP reporter activity (RAW-Dual [2]; agonist: LPS (TLR4) 0.1 ug/mL): 1.43 | NF-kB SEAP reporter activity (RAW-Dual [2]; [6]): 0.681 | NF-kB SEAP reporter activity (RAW-Dual [2]; [7]): 0.743 | NF-kB SEAP reporter activity (RAW-Dual [2]; [8]): 0.829

CNC(=O)c1ccc(N2C(=S)N(c3ccc(C#N)c(C(F)(F)F)c3)C(=O)C2(C)C)cc1F (library stock concentration (final ~1000-fold dilution): 10 mM)
NF-kB SEAP reporter activity (RAW-Dual [2]; agonist: LPS (TLR4) 0.1 ug/mL): 1.11 | NF-kB SEAP reporter activity (RAW-Dual [2]; [6]): 1.02 | NF-kB SEAP reporter activity (RAW-Dual [2]; [7]): 0.869 | NF-kB SEAP reporter activity (RAW-Dual [2]; [8]): 0.992

CNC(=O)c1ccc(N2C(=S)N(c3ccc(C#N)c(C(F)(F)F)c3)C(=O)C2(C)C)cc1F
NF-kB SEAP reporter activity (RAW-Dual [1]; [4]): 0.959 | NF-kB SEAP reporter activity (RAW-Dual [1]; [5]): 0.922

CCCc1ccc(OCC(=O)N(Cc2nc(-c3cccnc3)no2)C(C)C)cc1
NF-kB SEAP reporter activity (RAW-Dual [1]; [4]): 0.885 | NF-kB SEAP reporter activity (RAW-Dual [1]; [5]): 1.19

CCCc1ccc(OCC(=O)N(Cc2nc(-c3cccnc3)no2)C(C)C)cc1 (library stock concentration (final ~1000-fold dilution): 10 mM)
NF-kB SEAP reporter activity (RAW-Dual [2]; agonist: LPS (TLR4) 0.1 ug/mL): 1.21 | NF-kB SEAP reporter activity (RAW-Dual [2]; [6]): 0.989 | NF-kB SEAP reporter activity (RAW-Dual [2]; [7]): 1.01 | NF-kB SEAP reporter activity (RAW-Dual [2]; [8]): 0.985

CCN(CC)CCOCCOC(=O)C1(c2ccccc2)CCCC1
NF-kB SEAP reporter activity (RAW-Dual [1]; [4]): 0.866 | NF-kB SEAP reporter activity (RAW-Dual [1]; [5]): 1.06

CCN(CC)CCOCCOC(=O)C1(c2ccccc2)CCCC1 (library stock concentration (final ~1000-fold dilution): 10 mM)
NF-kB SEAP reporter activity (RAW-Dual [2]; agonist: LPS (TLR4) 0.1 ug/mL): 1.12 | NF-kB SEAP reporter activity (RAW-Dual [2]; [6]): 0.647 | NF-kB SEAP reporter activity (RAW-Dual [2]; [7]): 1.07 | NF-kB SEAP reporter activity (RAW-Dual [2]; [8]): 1.03

CCC(C)C(=O)OC1CC(C)C=C2C=CC(C)C(CCC3CC(O)CC(=O)O3)C21 (stereo unspecified) (library stock concentration (final ~1000-fold dilution): 10 mM)
NF-kB SEAP reporter activity (RAW-Dual [2]; agonist: LPS (TLR4) 0.1 ug/mL): 3.33 | NF-kB SEAP reporter activity (RAW-Dual [2]; [6]): 2.62 | NF-kB SEAP reporter activity (RAW-Dual [2]; [7]): 1.93 | NF-kB SEAP reporter activity (RAW-Dual [2]; [8]): 3.02

CCC(C)C(=O)OC1CC(C)C=C2C=CC(C)C(CCC3CC(O)CC(=O)O3)C21 (stereo unspecified)
NF-kB SEAP reporter activity (RAW-Dual [1]; [4]): 2.54 | NF-kB SEAP reporter activity (RAW-Dual [1]; [5]): 1.94

CCN(CC)C(=O)C1(c2ccccc2)CC1CN (stereo unspecified) (library stock concentration (final ~1000-fold dilution): 10 mM)
NF-kB SEAP reporter activity (RAW-Dual [2]; agonist: LPS (TLR4) 0.1 ug/mL): 1.03 | NF-kB SEAP reporter activity (RAW-Dual [2]; [6]): 0.889 | NF-kB SEAP reporter activity (RAW-Dual [2]; [7]): 1.01 | NF-kB SEAP reporter activity (RAW-Dual [2]; [8]): 1.03

CCN(CC)C(=O)C1(c2ccccc2)CC1CN (stereo unspecified)
NF-kB SEAP reporter activity (RAW-Dual [1]; [4]): 1.01 | NF-kB SEAP reporter activity (RAW-Dual [1]; [5]): 1.08

CCn1c(=O)c(-c2ccn[nH]2)cc2c(C)nc(N)nc21 (library stock concentration (final ~1000-fold dilution): 10 mM)
NF-kB SEAP reporter activity (RAW-Dual [2]; agonist: LPS (TLR4) 0.1 ug/mL): 1.58 | NF-kB SEAP reporter activity (RAW-Dual [2]; [6]): 1.72 | NF-kB SEAP reporter activity (RAW-Dual [2]; [7]): 1.19 | NF-kB SEAP reporter activity (RAW-Dual [2]; [8]): 1.93

CCn1c(=O)c(-c2ccn[nH]2)cc2c(C)nc(N)nc21
NF-kB SEAP reporter activity (RAW-Dual [1]; [4]): 1.15 | NF-kB SEAP reporter activity (RAW-Dual [1]; [5]): 1.31

CCc1cccc(CC)c1NC(=O)N1Cc2[nH]nc(NC(=O)c3ccc(N4CCN(C)CC4)cc3)c2C1 (library stock concentration (final ~1000-fold dilution): 10 mM)
NF-kB SEAP reporter activity (RAW-Dual [2]; agonist: LPS (TLR4) 0.1 ug/mL): 1.11 | NF-kB SEAP reporter activity (RAW-Dual [2]; [6]): 1.18 | NF-kB SEAP reporter activity (RAW-Dual [2]; [7]): 1.85 | NF-kB SEAP reporter activity (RAW-Dual [2]; [8]): 1.77

CCc1cccc(CC)c1NC(=O)N1Cc2[nH]nc(NC(=O)c3ccc(N4CCN(C)CC4)cc3)c2C1
NF-kB SEAP reporter activity (RAW-Dual [1]; [4]): 1.55 | NF-kB SEAP reporter activity (RAW-Dual [1]; [5]): 0.858

COc1ccc(Cl)cc1C(=O)NCCc1ccc(S(=O)(=O)NC(=O)NC2CCCCC2)cc1
NF-kB SEAP reporter activity (RAW-Dual [1]; library stock concentration (final ~1000-fold dilution): 50 mM, agonist: Imiquimod (TLR7) […]): 0.611 | NF-kB SEAP reporter activity (RAW-Dual [1]; library stock concentration (final ~1000-fold dilution): 50 mM, agonist: MPLA (TLR4) […]): 1.02

COc1ccc(Cl)cc1C(=O)NCCc1ccc(S(=O)(=O)NC(=O)NC2CCCCC2)cc1 (library stock concentration (final ~1000-fold dilution): 50 mM)
NF-kB SEAP reporter activity (RAW-Dual [2]; agonist: LPS (TLR4) 0.1 ug/mL): 0.872 | NF-kB SEAP reporter activity (RAW-Dual [2]; [6]): 0.906 | NF-kB SEAP reporter activity (RAW-Dual [2]; [7]): 0.602 | NF-kB SEAP reporter activity (RAW-Dual [2]; [8]): 0.557

COc1ccc2cc(-c3[nH]c(-c4ccc(S(C)=O)cc4)nc3-c3ccncc3)ccc2c1 (stereo unspecified)
NF-kB SEAP reporter activity (RAW-Dual [1]; [4]): 1.81 | NF-kB SEAP reporter activity (RAW-Dual [1]; [5]): 2.57

COc1ccc2cc(-c3[nH]c(-c4ccc(S(C)=O)cc4)nc3-c3ccncc3)ccc2c1 (stereo unspecified) (library stock concentration (final ~1000-fold dilution): 10 mM)
NF-kB SEAP reporter activity (RAW-Dual [2]; agonist: LPS (TLR4) 0.1 ug/mL): 3.42 | NF-kB SEAP reporter activity (RAW-Dual [2]; [6]): 2.22 | NF-kB SEAP reporter activity (RAW-Dual [2]; [7]): 1.74 | NF-kB SEAP reporter activity (RAW-Dual [2]; [8]): 2.04

CCOC(=O)C1=C(N)Oc2ccc(Cl)cc2C1C(C#N)C(=O)OCC (stereo unspecified) (library stock concentration (final ~1000-fold dilution): 10 mM)
NF-kB SEAP reporter activity (RAW-Dual [3]; agonist: LPS (TLR4) 0.1 ug/mL): 1.1 | NF-kB SEAP reporter activity (RAW-Dual [3]; [6]): 0.413 | NF-kB SEAP reporter activity (RAW-Dual [3]; [7]): 0.654 | NF-kB SEAP reporter activity (RAW-Dual [3]; [8]): 0.405

Source: the supplement of paper PMC10037445
